Results taken from publication PMC4336329 (PLoS ONE, 2015).
Out of some 310,000 compounds screened, about 14,000 (4.5%) showed an effect of 50% or more. Effects have a minus sign here. The list shows a part of the results.

target: human ether-à-go-go-related gene (hERG) potassium channel (human, UniProt Q12809); experiment: primary screen, population patch clamp on CHO cells stably expressing hERG
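Also: peak tail current of the secondary pulse compared with the same well before compound.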

Chain of human ether-à-go-go-related gene (hERG) potassium channel (Q12809 whole entry, looked up): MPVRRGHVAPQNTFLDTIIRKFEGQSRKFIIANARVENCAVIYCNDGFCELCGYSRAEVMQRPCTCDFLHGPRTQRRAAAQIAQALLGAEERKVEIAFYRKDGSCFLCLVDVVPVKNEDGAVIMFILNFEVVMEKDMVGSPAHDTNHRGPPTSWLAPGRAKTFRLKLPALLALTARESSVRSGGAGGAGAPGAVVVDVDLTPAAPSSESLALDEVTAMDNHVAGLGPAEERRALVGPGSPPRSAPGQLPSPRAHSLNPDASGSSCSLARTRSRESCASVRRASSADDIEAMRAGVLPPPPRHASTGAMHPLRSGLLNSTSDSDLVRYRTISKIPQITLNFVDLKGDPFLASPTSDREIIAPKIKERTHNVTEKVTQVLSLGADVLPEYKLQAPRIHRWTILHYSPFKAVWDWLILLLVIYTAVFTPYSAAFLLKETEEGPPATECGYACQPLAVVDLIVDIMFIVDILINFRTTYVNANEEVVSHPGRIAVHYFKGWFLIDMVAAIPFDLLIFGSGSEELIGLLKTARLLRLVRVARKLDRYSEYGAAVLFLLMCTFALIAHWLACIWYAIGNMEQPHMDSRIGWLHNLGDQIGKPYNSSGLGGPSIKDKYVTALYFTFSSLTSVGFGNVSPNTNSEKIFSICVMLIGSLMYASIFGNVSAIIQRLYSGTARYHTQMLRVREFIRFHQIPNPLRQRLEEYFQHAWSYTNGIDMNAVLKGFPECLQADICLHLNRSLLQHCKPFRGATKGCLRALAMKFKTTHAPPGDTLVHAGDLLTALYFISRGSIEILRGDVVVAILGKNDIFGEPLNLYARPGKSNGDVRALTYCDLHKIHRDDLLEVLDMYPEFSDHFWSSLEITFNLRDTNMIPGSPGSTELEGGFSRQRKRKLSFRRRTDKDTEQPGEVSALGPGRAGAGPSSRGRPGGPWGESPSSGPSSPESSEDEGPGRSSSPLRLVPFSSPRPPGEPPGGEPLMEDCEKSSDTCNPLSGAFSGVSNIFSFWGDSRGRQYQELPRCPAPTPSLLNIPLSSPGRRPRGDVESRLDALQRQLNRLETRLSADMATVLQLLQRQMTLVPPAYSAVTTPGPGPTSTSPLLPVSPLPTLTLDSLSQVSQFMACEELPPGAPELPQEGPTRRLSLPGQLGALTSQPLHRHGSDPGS

| SMILES | hERG current change (%, negative = inhibition) at 10uM [%] |
| --- | --- |
| O=C(CSc1nnc(-c2ccncc2)o1)N1CCCC1 | -19.1 |
| Cc1cc(C(=O)NC2CCCN(Cc3ccccc3F)C2)no1 (stereo not drawn) | 25.7 |
| O=C(CSc1ccc(-c2ccco2)nn1)c1ccc(F)cc1 | -25.8 |
| COC(=O)NC(NC(=S)Nc1cccc(C)c1)C(Cl)(Cl)Cl (stereo not drawn) | 8.32 |
| COc1ccc(CCNC(=O)NC23CC4CC(CC(C4)C2)C3)cc1 | 3.27 |
| O=C(CSCc1c(F)cccc1Cl)NCc1ccncc1 | 0.859 |
| Cc1cc(S(=O)(=O)NCC2CC2)c(Cl)cc1Cl | -1.48 |
| O=C(C1CCN(S(=O)(=O)c2cccc3cccnc23)CC1)N1CCCC1 | 7.5 |
| COC(=O)c1sccc1NC(=O)Nc1cccc(C)c1C | 14.6 |
| CCn1c(NCc2ccc3c(c2)OCO3)nc2ccccc21 | -38.5 |
| COc1ccc(-c2cn3cccnc3n2)cc1NC(=O)C(C)C | 4.49 |
| Cc1cc(C)c(NC(=O)c2cn3c4c(c(N5CCN(C)CC5)c(F)cc4c2=O)OCC3C)c(C)c1 (stereo not drawn) | -51.7 |
| CCOc1cccc(N(C(=O)c2ccco2)C(C(=O)NC2CCCC2)c2cccnc2)c1 (stereo not drawn) | 0.854 |
| CCN(CC)S(=O)(=O)c1ccc(N/N=C/c2ccc(OC)c(OC)c2OC)nc1 | 14.1 |
| COc1ccc(NC(=O)CN(C)C(=O)Cn2c(=O)oc3ccccc32)cc1 | -8.51 |
| CC(C)OCCCNC(=O)C1CCC(CNS(=O)(=O)c2ccc(Cl)cc2)CC1 (stereo not drawn) | 12.2 |
| COc1ccccc1NS(=O)(=O)c1ccc2[nH]c(=O)[nH]c2c1 | 1.71 |
| O=C(c1ccco1)N1CCN(Cc2cn[nH]c2-c2ccc(F)cc2F)CC1 | -12.8 |
| COC(=O)c1ccccc1SC(CC(=O)c1ccccc1)c1ccc(F)cc1 (stereo not drawn) | 11.1 |
| COC(=O)c1ccc(CSc2nnc(Nc3ccccc3OC)s2)o1 | -49.4 |
| COc1cc(C=O)ccc1OCCSc1ccc(Cl)cc1 | 2.93 |
| CCN(CC)C1CCN(C(=O)c2cc(COc3ccc(-n4cncn4)cc3)on2)C1 (stereo not drawn) | -16.9 |

| SMILES | hERG current change (%, negative = inhibition) at 10uM [%] |
| --- | --- |
| C[C@@H](O)C1NC(=O)[C@H](CCCCN)NC(=O)c2cc([N+](=O)[O-])cc(I)c2OCC[C@@H](C(N)=O)NC1=O (stereo partly drawn) | 22.2 |
| COc1ccc(S(=O)(=O)N2CN(CCc3ccc(OC)c(OC)c3)c3nc4ccccc4nc32)cc1 | -16 |
| COc1cc(/C=C(\C#N)C(=O)NCC2CCCO2)ccc1OCC(=O)O (stereo not drawn) | 11 |
| O=C(c1ccc2nc[nH]c2c1)N1CCN(c2ncc(C(F)(F)F)cc2Cl)CC1 | -53.6 |
| COc1ccc(CNC(=O)c2noc(C)c2[N+](=O)[O-])cc1 | 6.86 |
| Clc1cccc(-c2nc(-c3ccccn3)no2)c1 | 4.39 |
| CCC(C)n1c(O)c(/C=N/Nc2nc3c(c(=O)n(C)c(=O)n3C)n2C)c(=O)[nH]c1=S (stereo not drawn) | 13.4 |
| COCCN(C(=O)c1ccc(-c2ccc(Cl)cc2)o1)c1c(N)n(Cc2ccccc2)c(=O)[nH]c1=O | -31.5 |
| COc1ccc(N2C(=O)CC(N3CCN(c4ccccc4F)CC3)C2=O)cc1 (stereo not drawn) | -1.33 |
| COc1ccc(N2CCN(C(CNC(=O)C(=O)NCc3cccs3)c3ccco3)CC2)cc1 (stereo not drawn) | -8.15 |
| CN(C)/C=N/c1cnc(C(=O)c2ccc(Cl)cc2)n1C | 5.58 |
| O=C(CCc1nc2ccccc2c(=O)[nH]1)N1CCN(C/C=C/c2ccccc2)CC1 | -42.4 |
| CC(=O)n1c(=O)oc2ccccc21 | 17.3 |
| COc1ccc(S(N)(=O)=O)cc1C(=O)N1CCCC1 | 9.17 |
| COc1ccc(NC(=S)N/C(=N/CS(=O)(=O)c2ccccc2)c2ccccc2)cc1 | -53 |
| CCc1ccc(OCC(=O)NNC(=O)Cc2c(F)cccc2Cl)cc1 | 13.6 |
| O=C(CN1C(=O)COc2ccc(S(=O)(=O)N3CCCC3)cc21)NCc1ccccn1 | 2.13 |
| Cc1ccc(Cn2nnc3c(=O)[nH]c(C4CCN(S(=O)(=O)c5ccc(F)cc5)CC4)nc32)cc1 | 6.62 |
| CCn1c(CNC(=O)c2ccc(OC)cc2)nnc1SCC(=O)c1ccccc1 | -6.08 |
| CSc1ccccc1NC(=O)C(=O)c1c[nH]c2ccccc12 | 6.02 |
| CC1=C(C(=O)Nc2ccccc2C)C(c2ccccc2)NC(=O)N1 (stereo not drawn) | 12.2 |
| COC(=O)C1CCN(C(=O)CSc2nnc(-c3ccccc3)o2)CC1 | -5.51 |

| SMILES | hERG current change (%, negative = inhibition) at 10uM [%] |
| --- | --- |
| CCOC(=O)C1CCN(S(=O)(=O)c2cccc(C(=O)Nc3ccccc3)c2)CC1 | -37 |
| CC(=O)Nc1cccc(NC(=O)c2cc3ccccc3o2)c1 | -10.1 |
| O=C(c1cccnc1)N(c1cc2sc(=O)oc2c2ccccc12)S(=O)(=O)c1ccccc1 | 12.5 |
| O=C(Nc1nc(-c2cccnc2)cs1)c1cccc([N+](=O)[O-])c1 | 1.49 |
| CC(C)(C)OC(=O)NCCCC[C@H](NC(=O)c1nc[nH]c1C(=O)N[C@@H](CCCCNC(=O)OC(C)(C)C)C(=O)OC(C)(C)C)C(=O)OC(C)(C)C | 9.81 |
| COc1ccc(C(=O)NCc2cccnc2)cc1C(=O)NCc1cccnc1.O | 11.9 |
| COC(=O)/C(=C\Nc1ccc(Oc2ccc(F)cc2F)nc1)NC(=O)c1ccccc1 | 10 |
| O=C(NCc1ccccn1)Nc1cccc(F)c1 | 22.7 |
| CCOC(=O)c1ccc(NC(=O)c2nc(S(=O)(=O)Cc3ccccc3)ncc2Cl)cc1 | 34.2 |
| CCOc1ccc(-c2c(C(=O)N/N=C/C3CC=CCC3)nnn2-c2nonc2N)cc1 (stereo not drawn) | 0.674 |
| O=C(CCn1ccc2cc(S(=O)(=O)N3CCCC3)ccc21)NCc1ccccc1F | -8.63 |
| COc1cccc(C#Cc2c(CO)[nH]c3ccccc23)c1 | -7.79 |
| CNC(=S)N/N=C(\C)c1ccc(Cl)c(Cl)c1 | 30.1 |
| CCOC(=O)c1c(C)[nH]c(C)c1C(=O)CSc1nc2ccccc2c(=O)n1-c1ccc(CC)cc1 | 7.09 |
| O=c1cc(O)c2sc3nc4c(c(C(F)(F)F)c3c2[nH]1)CCCCC4 | -9.56 |
| Cc1cc2c(=O)n(CC(=O)N3CCN(c4ccccc4)CC3)cnc2s1 | 10.5 |
| Cc1nc2ccccc2c(=O)n1/N=C/c1ccc(O)cc1 | 10.9 |
| COc1cc(Cl)c(C)cc1NC(=S)NN | 16.7 |
| CCOC(=O)/C(=C/c1ccco1)NC(=O)c1ccc(Br)o1 | 1.52 |
| COc1ccc(-c2cccc(C(=O)Nc3ccccc3C)c2)cc1 | -9.12 |
| Cc1ccc(-c2csc3nnc(SCc4csc(C)n4)n23)cc1 | -23.7 |
| CN(C)C(CNC(=O)NC1CCCCC1)c1cccnc1 (stereo not drawn) | 11.5 |

| SMILES | hERG current change (%, negative = inhibition) at 10uM [%] |
| --- | --- |
| CCC(=O)N1CC2(CC(c3cccc([N+](=O)[O-])c3)=NO2)C[C@H]1C(=O)NCC(N)=O (stereo partly drawn) | 9.53 |
| Cc1cccc(-c2nnc3n2N=C(c2ccccc2Br)CS3)c1 | -14.4 |
| Cc1nc2c(-c3ccc(F)cc3)c(C)nn2c(C)c1CCC(=O)N1CCN(c2ccc(F)cc2)CC1 | -74.6 |
| COc1ccccc1N=Nc1ccc(N)c(C)c1 | 10.1 |
| CC(Oc1ccc(Br)cc1)C(=O)Nc1cc(Cl)ccc1N1CCN(C)CC1 (stereo not drawn) | -12.6 |
| Cc1ccccc1NC(=S)NC(=O)COc1ccccc1C | 12.2 |
| COCCNC(=O)c1ccc(CS(=O)(=O)c2ccc(OC)cc2)o1 | -0.154 |
| C=C1CCN(Cc2ccccc2)S(=O)(=O)c2ccccc21 | -23.4 |
| Cc1cc(/C=C(\C#N)C(=O)O)c(C)n1CC1CCCO1 (stereo not drawn) | 23.8 |
| CC1(C)CC(=O)C=C(NNC(=O)C2CCCCC2)C1 | 8.47 |
| C=CCN(C(=O)CSc1nc2ccsc2c(=O)n1Cc1ccccn1)c1ccccc1 | -19.4 |
| CC(C)(O)C#Cc1ccc(CN2CCCC(CNC(=O)c3ccco3)C2)cc1 (stereo not drawn) | -10.9 |
| Cc1ccccc1-n1nc(C)c2c1N=C1C(Cl)=CC(Cl)=CN1C2c1ccc(C(=O)O)cc1 (stereo not drawn) | 11.9 |
| Oc1c(Cl)cc(Cl)cc1/C=C/c1ccc2cccc(O)c2n1 | 18.1 |
| CCOc1ccc(N/C=C/C(=O)c2ccc(OC)cc2)cc1 | -5.92 |
| CC(=O)OCC1(C)CN(c2ccccc2)N(C(=O)c2ccc(F)cc2)C1=O (stereo not drawn) | -0.0352 |
| CCC(C)(C)n1nnnc1CN1CCc2ccccc21 | 3.74 |
| CCN(CCn1cccn1)Cc1c(C(=O)N2CCCCCCC2)nc2ccc(Cl)cn12 | -32.4 |
| Cc1c(C(=O)Oc2cccc3cccnc23)cccc1[N+](=O)[O-] | 4.51 |
| CS(=O)(=O)c1nncn1-c1ccccc1 | 17.5 |
| Cc1ccc(C)c(-c2cc(C(=O)Nc3nccs3)c3ccccc3n2)c1 | -8.77 |
